From patent US20110105515A1, “TARGETING THE ONCOPROTEIN NUCLEOPHOSMIN” (President and Fellows of Harvard College, priority 2007, published 2011)
Where two headings read alike, the source gives them in different places.

What was measured:
NCI-H322M [1] = conditions: NCI-H322M (Non-Small Cell Lung Cancer), 48 hours, SRB; for CC50: read-out: LC50
NCI-H322M [2] = assay: cells; conditions: Homo sapiens, 48 h; for CC50: read-out: LC50

SMILES | TGI (NCI-H322M [1]) [µM] | GI50 (NCI-H322M [2]) [µM] | CC50 (NCI-H322M [2]) [µM] | GI50 (NCI-H322M [1]) [µM] | CC50 (NCI-H322M [1]) [µM]
[2H]On1c2c(c3ccc4c(c31)C=CC(C)(C)O4)C(OC([2H])([2H])[2H])[C@@]13NC(=O)C4(CCCN4C1=O)CC3C2(C)C (stereo partly drawn) [Deuterated Methanol Adduct] | 2.54 | 1.22 | 5.31 | – | –
CC1(C)C=Cc2c(ccc3c4c(n(O)c23)C(C)(C)C2CC35CCCN3C(=O)C2(NC5=O)C4SCC(NC(=O)CCC(N)C(=O)O)C(=O)NCC(=O)O)O1 (stereo not drawn) [Glutathione Adduct] | 4.63 | – | – | 1.38 | 16.1
CN(C)c1cccc2c(S(=O)(=O)NCCCCCCCCCCOc3ccc4c(c3)[N+]([O-])=C3C4=C[C@@]45NC(=O)C6(CCCN6C4=O)CC5C3(C)C)cccc12 (stereo partly drawn) [Dansyl Analogue] | 3.58 | – | – | 1.48 | 8.67
Cc1cc(C)cc(-c2ccc3c(c2)[N+]([O-])=C2C3=C[C@@]34NC(=O)C5(CCCN5C3=O)CC4C2(C)C)c1 (stereo partly drawn) [Biphenyl Analogue] | 1.28 | 0.278 | 3.79 | – | –
